Among all 310,000 compounds or so, about 2,200 (0.71%) showed an effect of 50% or more. The effect is printed as a negative number. Some of the results follow.
Target: human ether-à-go-go-related gene (hERG) potassium channel (human, UniProt Q12809)
Experiment: primary screen, population patch clamp on CHO cells stably expressing hERG

human ether-à-go-go-related gene (hERG) potassium channel, sequence (Q12809 whole entry, looked up): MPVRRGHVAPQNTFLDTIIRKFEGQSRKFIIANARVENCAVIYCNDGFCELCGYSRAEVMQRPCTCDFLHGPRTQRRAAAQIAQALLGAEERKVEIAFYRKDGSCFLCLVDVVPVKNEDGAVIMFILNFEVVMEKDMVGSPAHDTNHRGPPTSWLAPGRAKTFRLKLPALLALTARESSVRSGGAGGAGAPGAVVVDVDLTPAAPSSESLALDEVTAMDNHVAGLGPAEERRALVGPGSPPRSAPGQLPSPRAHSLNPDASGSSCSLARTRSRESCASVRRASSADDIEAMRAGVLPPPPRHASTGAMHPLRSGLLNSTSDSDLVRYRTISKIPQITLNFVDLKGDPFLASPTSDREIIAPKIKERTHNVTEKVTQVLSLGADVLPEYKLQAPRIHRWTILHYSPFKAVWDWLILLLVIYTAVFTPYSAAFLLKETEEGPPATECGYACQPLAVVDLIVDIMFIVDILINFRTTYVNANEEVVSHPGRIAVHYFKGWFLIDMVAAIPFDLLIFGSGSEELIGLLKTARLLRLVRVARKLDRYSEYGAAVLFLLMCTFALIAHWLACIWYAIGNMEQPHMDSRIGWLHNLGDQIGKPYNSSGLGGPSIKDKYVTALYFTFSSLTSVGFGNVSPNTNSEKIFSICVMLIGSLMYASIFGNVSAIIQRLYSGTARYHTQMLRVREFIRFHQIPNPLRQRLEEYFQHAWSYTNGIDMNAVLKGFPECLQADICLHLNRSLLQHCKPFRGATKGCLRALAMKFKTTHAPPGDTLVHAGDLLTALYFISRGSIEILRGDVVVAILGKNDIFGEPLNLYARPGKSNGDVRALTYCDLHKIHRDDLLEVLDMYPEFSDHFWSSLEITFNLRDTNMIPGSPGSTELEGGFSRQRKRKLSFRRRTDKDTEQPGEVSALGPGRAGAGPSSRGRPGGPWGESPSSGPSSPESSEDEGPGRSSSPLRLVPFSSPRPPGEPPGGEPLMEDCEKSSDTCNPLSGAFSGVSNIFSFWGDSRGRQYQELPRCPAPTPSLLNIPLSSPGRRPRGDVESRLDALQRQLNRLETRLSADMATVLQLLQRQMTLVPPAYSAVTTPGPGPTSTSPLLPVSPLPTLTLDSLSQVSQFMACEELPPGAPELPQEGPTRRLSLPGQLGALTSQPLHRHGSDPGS

| Structure (SMILES) | hERG current change (%, negative = inhibition) at 1uM |
| --- | --- |
| COc1ccc(S(=O)(=O)N2CCN(C)CC2)c2ccccc12 | 9.59% |
| CC(=O)Nc1ccc(OCC(O)CN2CCN(c3ccc(Cl)cc3)CC2)cc1 (stereo not shown) | -0.944% |
| Cc1ccc(CNC(=O)CSc2nc3ccccc3c(=O)n2CCCO)cc1 | -51.3% |
| CCC(=O)Nc1sc(C(=O)N2CCCCC2)c(C)c1C#N | 5.29% |
| CN(Cc1ccccc1)c1nc2c(c(=O)[nH]c(=O)n2C)n1C | 4.57% |
| COc1ccc(CNC(=O)COc2cc(=O)n(C)c3ccccc23)cc1 | 7.49% |
| Cc1cccc(N2CCCn3c2nc2c3c(=O)n(CCN3CCOCC3)c(=O)n2C)c1 | 17.4% |
| CCCCn1c(=O)c(CCC(=O)OCC(=O)Nc2cc(Cl)ccc2OC)nc2ccccc21 | 12.6% |
| CO[C@@]12[C@H](COC(N)=O)C3=C(C(=O)C(C)=C(N)C3=O)N1C[C@@H]1N[C@@H]12 | 7.86% |
| O=C(COc1ccc(S(=O)(=O)NCc2ccccc2)cc1Cl)NCc1ccccn1 | 8.36% |
| COc1ccc(N(CC(=O)NCCC2=CCCCC2)S(=O)(=O)c2ccc(C)cc2)cc1OC | -1.21% |
| N#CC1=C(N)Oc2n[nH]c(-c3ccccn3)c2C1c1c(F)cccc1Cl (stereo not shown) | -0.473% |
| CC(=O)Oc1ccc2c(C)cc(=O)oc2c1 | 9.62% |
| COC(=O)c1ccc(NC(=O)CSC2=NC(=O)C(c3ccccc3)C(=O)N2)cc1 (stereo not shown) | -1.58% |
| CCOP(=S)(OCC)N1CCOCCOCCN(P(=S)(OCC)OCC)CCOCCOCC1 | 2.15% |
| C=CCN1C(=O)C(CC(=O)O)S/C1=N/N=C/c1ccc(N(CC)CC)cc1 (stereo not shown) | 0.67% |
| CCOP(=O)(OCC)C(NC(=O)Nc1cccc(Cl)c1)c1ccccc1 (stereo not shown) | 1.07% |
| NNC(=O)c1cccc(S(=O)(=O)Nc2cccc(C(F)(F)F)c2)c1 | 11.7% |
| Cc1cc(C)nc(SCC(=O)N(C)CC(=O)Nc2ccccc2Br)n1 | -5.76% |
| CC1(C)CC(=O)C=C(c2ccc3[nH]ccc3c2)C1 | 8.85% |
| Cc1ccccc1Nc1nnc(SCC(=O)N(C)C2CCS(=O)(=O)C2)s1 (stereo not shown) | 3.52% |
| CN(C)CCCNC(=O)c1ccc(-c2ccccc2)cc1 | -11.5% |
| O=C(c1cc2nc(-c3ccccc3)cc(-c3ccccc3)n2n1)N1CCCC1 | 10.2% |
| O=C(Cn1c2[n+](c3ccc(C(F)(F)F)cc31)CCCCC2)Nc1c(F)cccc1F.[Cl-] | 9.69% |
| CN(C)c1ccc(C(C(=O)NC2CCCC2)N(C(=O)c2ccco2)C2CC2)cc1 (stereo not shown) | 12.3% |
| O=C(c1ccccc1)N1CCN(c2nc3ccc([N+](=O)[O-])cc3s2)CC1 | -14% |
| CCc1ccc2ncc(S(=O)(=O)c3ccc(C)c(C)c3)c(N3CCCC3)c2c1 | 11.9% |
| O=C(O)c1cc(O)c2c(c1)[C@H]([C@H]1c3cc(C(=O)O)cc(O)c3C(=O)c3c(O[C@@H]4O[C@H](CO)[C@@H](O)[C@H](O)[C@H]4O)cccc31)c1cccc(OC3O[C@H](CO)[C@@H](O)[C@H](O)[C@H]3O)c1C2=O (stereo partly shown) | 7.86% |

| Structure (SMILES) | hERG current change (%, negative = inhibition) at 1uM |
| --- | --- |
| O=C(Nc1cc([N+](=O)[O-])ccc1Cl)C1CC1 | 8.39% |
| COc1cccc(CNC(=O)C2CCN(S(=O)(=O)c3ccccc3)CC2)c1 | -8.89% |
| Cc1c(NC(=O)N(C)C)c(=O)n(-c2ccccc2)n1C | 11.1% |
| Cc1cc(C=C2C(=O)NC(=O)NC2=O)c(C)n1-c1cccnc1 | 7.58% |
| CCOC(=O)N1CCN(S(=O)(=O)c2ccc(OC)c(Cl)c2Cl)CC1 | 3.18% |
| Cc1ccc(S(=O)(=O)Nc2nc(C)c(NC(=O)Nc3ccc(Cl)cc3Cl)s2)cc1 | 8.41% |
| CCOC(=O)CSc1nccc(N(C)C)c1C#N | 13.7% |
| CCOC(=O)c1ccc(NC(=O)c2ccccc2)cc1 | 12.4% |
| Cc1nn(Cc2ccccc2)c(Cl)c1/C=N/NC(=O)c1cccnc1 | 5.03% |
| CN(Cc1c(C(=O)N/N=C/c2cc(F)ccc2F)nnn1-c1nonc1N)C1CCCCC1 | 7.43% |
| CC(C)c1ccc(S(=O)(=O)Nc2ccc(O)c(Sc3ncn[nH]3)c2)cc1 | 1.49% |
| COc1cc(C(=O)NNC(=O)C2CC2)cc(OC)c1OC | 15.5% |
| COc1cc(/C=C/C(=O)N2CCc3ccccc3C2)cc(OC)c1OC | 12.2% |
| Cc1nc(CNS(=O)(=O)c2ccc(Br)cc2)cs1 | 19.7% |
| Cc1ccc(OCc2ccc(C(=O)Nc3c(C)nn(Cc4c(F)c(F)c(F)c(F)c4F)c3C)o2)c([N+](=O)[O-])c1 | -20.1% |
| Cc1ccc(CNC(=O)CCNC(=O)Cn2ccc3ccccc3c2=O)o1 | 10.7% |
| COc1ccc(N2CCN(C3CCCN(C(=O)c4cccc(C)n4)C3)CC2)cc1 (stereo not shown) | 7.63% |
| CCn1c(NC2CCCCC2)nc2ccccc21 | 0.512% |
| CC1(C)C(=O)N(CCN2CCC(C(=O)c3ccc(F)cc3)CC2)c2ccccc21.Cl | -60.8% |
| COc1ccc(S(=O)(=O)NC2CC3CCC2C3)cc1 (stereo not shown) | 15% |
| O=S(=O)(NCc1ccccc1)c1ccc2ccccc2c1 | 7.75% |
| CCOc1ccccc1CN1CCC(N2CCOCC2)CC1.O=C(O)C(=O)O | 18.2% |
| C1CNCCOCCNCCN1 | 1.84% |
| O=C(Cc1ccccc1)N1CCNCC1.O=C(O)C(=O)O | 6.55% |
| COc1ccc(C(=O)OCCN2CCCCC2)cc1.Cl | 9.16% |
| Cc1cccc(C)c1NC(=O)CNC(=O)Cn1nc(C)c(C)c(C#N)c1=O | 19.1% |
| O=C(NCCCn1ccnc1)c1cc([N+](=O)[O-])cc([N+](=O)[O-])c1 | -0.91% |
